T1: human VEGF-A (human, UniProt P15692-4 27-191)
T1 sequence (looked up): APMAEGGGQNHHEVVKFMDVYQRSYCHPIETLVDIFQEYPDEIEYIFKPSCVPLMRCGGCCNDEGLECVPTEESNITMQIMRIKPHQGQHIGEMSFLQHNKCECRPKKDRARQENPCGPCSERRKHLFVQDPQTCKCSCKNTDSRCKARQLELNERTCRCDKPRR

B1: TPP-19986 (bispecific antibody, human IgG1, kappa)
light: DIQLTQSPSSLSASVGDRVTITCSASQDISNYLNWYQQKPGKAPKVLIYFTSSLHSGVPSRFSGSGSGTDFTLTISSLQPEDFATYYCQQYSTVPWTFGQGTKVEIKRTVAAPSVFIFPPSDEQLKSGTASVVCLLNNFYPREAKVQWKVDNALQSGNSQESVTEQDSKDSTYSLSSTLTLSKADYEKHKVYACEVTHQGLSSPVTKSFNRGEC
heavy: EVQLVESGGGLVQPGGSLRLSCAASGYDFTHYGMNWVRQAPGKGLEWVGWINTYTGEPTYAADFKRRFTFSLDTSKSTAYLQMNSLRAEDTAVYYCAKYPYYYGTSHWYFDVWGQGTLVTVSSASTKGPSVFPLAPSSKSTSGGTAALGCLVKDYFPEPVTVSWNSGALTSGVHTFPAVLQSSGLYSLSSVVTVPSSSLGTQTYICNVNHKPSNTKVDKRV[in this place human IgG1 Fc with changes]GGGGSGGGGSQVQLVQSGAEVKKPGASVKVSCKASGYTFTNYDIIWVRQAPGQGLEWMGYINPYNDGTKYNEKFKGRVTMTRDTSTSTVYMELSSLRSEDTAVYYCARLLKYRRFRYYAIDYWGQGTTVTVSSGGSEGKSSGSGSESKSTGGSDIQMTQSPSSLSASVGDRVTITCRTSENVYSNLAWYQQKPGKAPKLLIYAASNLQSGVPSRFSGSGSGTDYTFTISSLQPEDIATYYCQHFWGSPFTFGQGTKLEIK
B2: TPP-19987 (bispecific antibody, human IgG1, kappa)
light: DIQLTQSPSSLSASVGDRVTITCSASQDISNYLNWYQQKPGKAPKVLIYFTSSLHSGVPSRFSGSGSGTDFTLTISSLQPEDFATYYCQQYSTVPWTFGQGTKVEIKRTVAAPSVFIFPPSDEQLKSGTASVVCLLNNFYPREAKVQWKVDNALQSGNSQESVTEQDSKDSTYSLSSTLTLSKADYEKHKVYACEVTHQGLSSPVTKSFNRGEC
heavy: EVQLVESGGGLVQPGGSLRLSCAASGYDFTHYGMNWVRQAPGKGLEWVGWINTYTGEPTYAADFKRRFTFSLDTSKSTAYLQMNSLRAEDTAVYYCAKYPYYYGTSHWYFDVWGQGTLVTVSSASTKGPSVFPLAPSSKSTSGGTAALGCLVKDYFPEPVTVSWNSGALTSGVHTFPAVLQSSGLYSLSSVVTVPSSSLGTQTYICNVNHKPSNTKVDKRV[in this place human IgG1 Fc with changes]GGGGSGGGGSGGGGSGGGGSQVQLVQSGAEVKKPGASVKVSCKASGYTFTNYDIIWVRQAPGQGLEWMGYINPYNDGTKYNEKFKGRVTMTRDTSTSTVYMELSSLRSEDTAVYYCARLLKYRRFRYYAIDYWGQGTTVTVSSGGSEGKSSGSGSESKSTGGSDIQMTQSPSSLSASVGDRVTITCRTSENVYSNLAWYQQKPGKAPKLLIYAASNLQSGVPSRFSGSGSGTDYTFTISSLQPEDIATYYCQHFWGSPFTFGQGTKLEIK
B3: TPP-22180 (bispecific antibody, human IgG1, kappa)
light: DIQLTQSPSSLSASVGDRVTITCSASQDISNYLNWYQQKPGKAPKVLIYFTSSLHSGVPSRFSGSGSGTGFTLTISSLQPEDFATYYCQQYSTVPWTFGQGTKVEIKRTVAAPSVFIFPPSDEQLKSGTASVVCLLNNFYPREAKVQWKVDNALQSGNSQESVTEQDSKDSTYSLSSTLTLSKADYEKHKVYACEVTHQGLSSPVTKSFNRGEC
heavy: QVQLVQSGGGLVQPGGSLRLSCAASGYDFTHYGMNWVRQAPGKGLEWVGWINTYTGEPTYAADFKRRFTFSLDTSKSTAYLQMNSLRAEDTAVYYCAKYPYYYGTSHWYFDVWGQGTLVTVSSASTKGPSVFPLAPSSKSTSGGTAALGCLVKDYFPEPVTVSWNSGALTSGVHTFPAVLQSSGLYSLSSVVTVPSSSLGTQTYICNVNHKPSNTKVDKRV[in this place human IgG1 Fc with changes]GGGGSGGGGSQVQLVQSGAEVKKPGASVKVSCKASGYTFTNYDIIWVRQAPGQGLEWMGYINPYNDGTKYNEKFKGRVTMTRDTSTSTVYMELSSLRSEDTAVYYCARLLKYRRFRYYAIDYWGQGTTVTVSSGGSEGKSSGSGSESKSTGGSDIQMTQSPSSLSASVGDRVTITCRTSENVYSNLAWYQQKPGKAPKLLIYAASNLQSGVPSRFSGSGSGTDYTFTISSLQPEDIATYYCQHFWGSPFTFGQGTKLEIK
B4: TPP-22204 (bispecific antibody, human IgG1, kappa)
light: DIQLTQSPSSLSASVGDRVTITCSASQDISNYLNWYQQKPGKAPKVLIYFTSSLHSGVPSRFSGSGSGTGFTLTISSLQPEDFATYYCQQYSTVPWTFGQGTKVEIKRTVAAPSVFIFPPSDEQLKSGTASVVCLLNNFYPREAKVQWKVDNALQSGNSQESVTEQDSKDSTYSLSSTLTLSKADYEKHKVYACEVTHQGLSSPVTKSFNRGEC
heavy: QVQLVQSGGGLVQPGGSLRLSCAASGYDFTHYGMNWVRQAPGKGLEWVGWINTYTGEPTYAADFKRRFTFSLDTSKSTAYLQMNSLRAEDTAVYYCAKYPYYYGTSHWYFDVWGQGTLVTVSSASTKGPSVFPLAPSSKSTSGGTAALGCLVKDYFPEPVTVSWNSGALTSGVHTFPAVLQSSGLYSLSSVVTVPSSSLGTQTYICNVNHKPSNTKVDKRV[in this place human IgG1 Fc with changes]GGGGSGGGGSQVQLVQSGAEVKKPGASVKVSCKASGYTFTNYDIIWVRQAPGQCLEWMGYINPYNDGTKYNEKFKGRVTMTRDTSTSTVYMELSSLRSEDTAVYYCARLLKYRRFRYYAIDYWGQGTTVTVSSGGSEGKSSGSGSESKSTGGSDIQMTQSPSSLSASVGDRVTITCRTSENVYSNLAWYQQKPGKAPKLLIYAASNLQSGVPSRFSGSGSGTDYTFTISSLQPEDIATYYCQHFWGSPFTFGCGTKLEIK
B5: TPP-22192 (bispecific antibody, human IgG1, kappa)
light: DIQLTQSPSSLSASVGDRVTITCSASQDISNYLNWYQQKPGKAPKVLIYFTSSLHSGVPSRFSGSGSGTGFTLTISSLQPEDFATYYCQQYSTVPWTFGQGTKVEIKRTVAAPSVFIFPPSDEQLKSGTASVVCLLNNFYPREAKVQWKVDNALQSGNSQESVTEQDSKDSTYSLSSTLTLSKADYEKHKVYACEVTHQGLSSPVTKSFNRGEC
heavy: QVQLVQSGGGLVQPGGSLRLSCAASGYDFTHYGMNWVRQAPGKGLEWVGWINTYTGEPTYAADFKRRFTFSLDTSKSTAYLQMNSLRAEDTAVYYCAKYPYYYGTSHWYFDVWGQGTLVTVSSASTKGPSVFPLAPSSKSTSGGTAALGCLVKDYFPEPVTVSWNSGALTSGVHTFPAVLQSSGLYSLSSVVTVPSSSLGTQTYICNVNHKPSNTKVDKRV[in this place human IgG1 Fc with changes]GGGGSGGGGSDIQMTQSPSSLSASVGDRVTITCRTSENVYSNLAWYQQKPGKAPKLLIYAASNLQSGVPSRFSGSGSGTDYTFTISSLQPEDIATYYCQHFWGSPFTFGQGTKLEIKGGSEGKSSGSGSESKSTGGSQVQLVQSGAEVKKPGASVKVSCKASGYTFTNYDIIWVRQAPGQGLEWMGYINPYNDGTKYNEKFKGRVTMTRDTSTSTVYMELSSLRSEDTAVYYCARLLKYRRFRYYAIDYWGQGTTVTVSS
B6: TPP-22216 (bispecific antibody, human IgG1, kappa)
light: DIQLTQSPSSLSASVGDRVTITCSASQDISNYLNWYQQKPGKAPKVLIYFTSSLHSGVPSRFSGSGSGTGFTLTISSLQPEDFATYYCQQYSTVPWTFGQGTKVEIKRTVAAPSVFIFPPSDEQLKSGTASVVCLLNNFYPREAKVQWKVDNALQSGNSQESVTEQDSKDSTYSLSSTLTLSKADYEKHKVYACEVTHQGLSSPVTKSFNRGEC
heavy: QVQLVQSGGGLVQPGGSLRLSCAASGYDFTHYGMNWVRQAPGKGLEWVGWINTYTGEPTYAADFKRRFTFSLDTSKSTAYLQMNSLRAEDTAVYYCAKYPYYYGTSHWYFDVWGQGTLVTVSSASTKGPSVFPLAPSSKSTSGGTAALGCLVKDYFPEPVTVSWNSGALTSGVHTFPAVLQSSGLYSLSSVVTVPSSSLGTQTYICNVNHKPSNTKVDKRV[in this place human IgG1 Fc with changes]GGGGSGGGGSDIQMTQSPSSLSASVGDRVTITCRTSENVYSNLAWYQQKPGKAPKLLIYAASNLQSGVPSRFSGSGSGTDYTFTISSLQPEDIATYYCQHFWGSPFTFGCGTKLEIKGGSEGKSSGSGSESKSTGGSQVQLVQSGAEVKKPGASVKVSCKASGYTFTNYDIIWVRQAPGQCLEWMGYINPYNDGTKYNEKFKGRVTMTRDTSTSTVYMELSSLRSEDTAVYYCARLLKYRRFRYYAIDYWGQGTTVTVSS

Legend:
Assay in all cases: cell-based or functional assay
human TrkB receptor [1] = molecular target: T2, human TrkB receptor (human, UniProt Q16620 32-822)
rat TrkB receptor = rat TrkB receptor (rat, UniProt Q63604 32-821)
Chain of rat TrkB receptor (Q63604 32-821): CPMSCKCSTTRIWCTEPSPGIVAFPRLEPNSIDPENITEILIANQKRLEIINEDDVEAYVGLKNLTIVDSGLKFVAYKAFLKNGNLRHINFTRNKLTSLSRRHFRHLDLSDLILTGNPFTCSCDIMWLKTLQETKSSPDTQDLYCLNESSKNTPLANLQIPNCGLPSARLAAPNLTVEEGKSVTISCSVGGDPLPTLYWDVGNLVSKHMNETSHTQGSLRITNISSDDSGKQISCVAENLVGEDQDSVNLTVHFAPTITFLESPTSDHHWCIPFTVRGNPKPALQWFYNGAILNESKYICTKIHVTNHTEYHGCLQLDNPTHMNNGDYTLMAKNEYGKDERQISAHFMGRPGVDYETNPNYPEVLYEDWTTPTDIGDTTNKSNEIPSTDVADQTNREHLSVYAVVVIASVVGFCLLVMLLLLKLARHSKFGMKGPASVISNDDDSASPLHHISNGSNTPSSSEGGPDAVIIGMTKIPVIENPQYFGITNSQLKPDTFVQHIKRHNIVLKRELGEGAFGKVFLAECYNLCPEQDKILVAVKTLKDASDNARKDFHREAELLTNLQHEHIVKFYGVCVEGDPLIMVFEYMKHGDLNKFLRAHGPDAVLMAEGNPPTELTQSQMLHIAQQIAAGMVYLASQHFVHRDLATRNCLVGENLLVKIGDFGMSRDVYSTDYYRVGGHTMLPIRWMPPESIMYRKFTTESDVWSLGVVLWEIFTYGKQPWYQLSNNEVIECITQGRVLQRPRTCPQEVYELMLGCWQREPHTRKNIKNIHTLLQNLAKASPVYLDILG

human TrkB receptor [2] = molecular target: T2, human TrkB receptor; remark: listed apart in the source
T2 sequence (Q16620 32-822): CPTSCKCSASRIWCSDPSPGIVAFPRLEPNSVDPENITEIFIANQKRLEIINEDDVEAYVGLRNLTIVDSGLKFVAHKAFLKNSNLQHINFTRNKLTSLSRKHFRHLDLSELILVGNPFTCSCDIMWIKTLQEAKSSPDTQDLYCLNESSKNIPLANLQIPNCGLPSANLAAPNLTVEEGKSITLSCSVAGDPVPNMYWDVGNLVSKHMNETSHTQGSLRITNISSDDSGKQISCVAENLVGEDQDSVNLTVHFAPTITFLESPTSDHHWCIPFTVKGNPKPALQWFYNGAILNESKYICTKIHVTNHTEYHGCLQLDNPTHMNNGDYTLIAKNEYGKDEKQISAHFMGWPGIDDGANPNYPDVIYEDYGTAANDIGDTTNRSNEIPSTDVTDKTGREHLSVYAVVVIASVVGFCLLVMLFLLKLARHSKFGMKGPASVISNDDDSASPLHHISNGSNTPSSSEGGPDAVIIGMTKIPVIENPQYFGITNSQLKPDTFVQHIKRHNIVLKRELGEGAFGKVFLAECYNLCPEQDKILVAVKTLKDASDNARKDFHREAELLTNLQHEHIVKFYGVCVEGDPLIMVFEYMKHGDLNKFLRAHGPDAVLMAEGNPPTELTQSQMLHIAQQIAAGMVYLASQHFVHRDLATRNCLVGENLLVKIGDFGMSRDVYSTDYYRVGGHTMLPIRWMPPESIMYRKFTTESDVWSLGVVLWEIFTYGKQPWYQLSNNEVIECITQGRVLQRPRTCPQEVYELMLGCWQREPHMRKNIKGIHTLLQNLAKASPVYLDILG

human VEGF-A = molecular target: T1, human VEGF-A

Row | Binder | EC50 (pERK) (human TrkB receptor [1]) [nM] | EC50 (pTrkB) (human TrkB receptor [1]) [nM] | TrkB-phosphorylation efficacy (AlphaLISA counts) (rat TrkB receptor) | TrkB-phosphorylation efficacy relative to parental clone without CC bridge (%) (rat TrkB receptor) | TrkB-phosphorylation potency (EC50, nM) (rat TrkB receptor) [nM] | TrkB-phosphorylation efficacy (AlphaLISA counts) (human TrkB receptor [2]) | TrkB-phosphorylation efficacy relative to parental clone without CC bridge (%) (human TrkB receptor [2]) | TrkB-phosphorylation potency (EC50, nM) (human TrkB receptor [2]) [nM] | concentration for full inhibition of VEGF-induced HRMEC proliferation (human VEGF-A) [nM]
1 | B1 | 0.406 | 2 |  |  |  |  |  |  | 
2 | B2 | 0.381 | 2.16 |  |  |  |  |  |  | 
3 | B3 |  |  | 19700 | 100 | 4.21 | 6640 | 100 | 8.09 | 
4 | B4 |  |  | 21800 | 111 | 2.01 | 7610 | 115 | 3.88 | 0.25
5 | B5 |  |  | 21200 | 100 | 18.9 | 5640 | 100 | 12.2 | 
6 | B6 |  |  | 25800 | 122 | 3.31 | 8410 | 149 | 4.33 | 0.25

Reference: US20220119536A1 (Boehringer Ingelheim, published 2022)
